# Source: the antibiotic and cytotoxicity screens of Wong et al. (2023)
# Some of the results follow.
# Tested on: HepG2
# Assay: cytotoxicity call (relative viability < 0.9)
# Conditions: 10 µM
row,SMILES,cytotoxicity call
1,CC(C)NC(=O)N(C)C[C@H]1Oc2ccc(NC(=O)Cc3ccccc3)cc2CC(=O)N([C@@H](C)CO)C[C@H]1C,inactive
2,CC(C)NC(=O)Nc1ccc2c(c1)C(=O)N([C@@H](C)CO)C[C@H](C)[C@@H](CN(C)S(=O)(=O)c1ccccc1)O2,inactive
3,C[C@@H]1CCCCO[C@H](CN(C)S(=O)(=O)c2ccc(Cl)cc2)[C@H](C)CN([C@@H](C)CO)C(=O)c2cc(NC(=O)c3ccncc3)ccc2O1,inactive
4,Cc1noc(C)c1NC(=O)Nc1ccc2c(c1)CC(=O)N([C@@H](C)CO)C[C@H](C)[C@H](CN(C)Cc1ccc(Oc3ccccc3)cc1)O2,inactive
5,COc1ccc(CN(C)C[C@H]2OCCCC[C@@H](C)Oc3ccc(NS(=O)(=O)c4c(C)noc4C)cc3C(=O)N([C@@H](C)CO)C[C@@H]2C)cc1,inactive
6,C[C@H]1CN([C@@H](C)CO)C(=O)Cc2cc(NC(=O)Nc3ccccc3)ccc2O[C@@H]1CN(C)S(=O)(=O)c1cn(C)cn1,inactive
7,COCC(=O)N1C[C@@H](C)[C@@H](OC)CN(C)C(=O)c2cc(NC(=O)c3cc(C)on3)ccc2OC[C@@H]1C,inactive
